Experimental data: patent US20140335107A1 (published 2014)

T1: human CD79b (human, UniProt P40259 29-229)
T1 construct: endogenous CD79b on B-cell lines (BJAB, BJAB-luciferase, DoHH-2); also called PRO36249; CD79b expressed on the surface of BJAB-luciferase cells
T1 sequence: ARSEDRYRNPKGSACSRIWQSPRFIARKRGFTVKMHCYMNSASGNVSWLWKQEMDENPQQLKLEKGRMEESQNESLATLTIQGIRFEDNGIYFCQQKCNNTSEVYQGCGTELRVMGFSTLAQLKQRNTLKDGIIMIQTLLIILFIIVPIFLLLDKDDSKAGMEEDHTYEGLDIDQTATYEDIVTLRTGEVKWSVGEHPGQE

B1: thio MA79b-LC(V205C)-MC-MMAF (antibody, human IgG1, kappa)
light: DIVLTQSPASLAVSLGQRATISCKASQSVDYDGDSFLNWYQQKPGQPPKLFIYAASNLESGIPARFSGSGSGTDFTLNIHPVEEEDAATYYCQQSNEDPLTFGAGTELELKRTVAAPSVFIFPPSDEQLKSGTASVVCLLNNFYPREAKVQWKVDNALQSGNSQESVTEQDSKDSTYSLSSTLTLSKADYEKHKVYACEVTHQGLSSPCTKSFNRGEC
heavy: EVQLQQSGAELMKPGASVKISCKATGYTFSSYWIEWVKQRPGHGLEWIGEILPGGGDTNYNEIFKGKATFTADTSSNTAYMQLSSLTSEDSAVYYCTRRVPVYFDYWGQGTSVTVSS[no letters for human IgG1 constant region]
modifications: MC-MMAF on the engineered Cys at Kabat position 205 (sequential position 209)
notes: cysteine engineered antibody drug conjugate (TDC); also called thio chMA79b-LC(V205C)-MC-MMAF; LC (V205C) thioMAb variant of chMA79b with MMAF
B2: thio MA79b-HC(A118C)-MC-MMAF (antibody, human IgG1, kappa)
light: DIVLTQSPASLAVSLGQRATISCKASQSVDYDGDSFLNWYQQKPGQPPKLFIYAASNLESGIPARFSGSGSGTDFTLNIHPVEEEDAATYYCQQSNEDPLTFGAGTELELKRTVAAPSVFIFPPSDEQLKSGTASVVCLLNNFYPREAKVQWKVDNALQSGNSQESVTEQDSKDSTYSLSSTLTLSKADYEKHKVYACEVTHQGLSSPVTKSFNRGEC
heavy: EVQLQQSGAELMKPGASVKISCKATGYTFSSYWIEWVKQRPGHGLEWIGEILPGGGDTNYNEIFKGKATFTADTSSNTAYMQLSSLTSEDSAVYYCTRRVPVYFDYWGQGTSVTVSSCSTKGPSVFPLAPSSKSTSGGTAALGCLVKDYFPEPVTVSWNSGALTSGVHTFPAVLQSSGLYSLSSVVTVPSSSLGTQTYICNVNHKPSNTKVDKKV[no letters for human IgG1 Fc]
modifications: MC-MMAF on the engineered Cys at EU position 118 (sequential position 118; Kabat position 114)
notes: cysteine engineered antibody drug conjugate (TDC); also called thio chMA79b-HC(A118C)-MC-MMAF; HC (A118C) thioMAb variant of chMA79b with MMAF

Target: T1, human CD79b
Experiment: FACS on BJAB-luciferase cells
Procedure: The binding affinity of thio huMA79b.v18, thio huMA79b.v28 drug conjugates and thio MA79b drug conjugates to CD79b expressed on BJAB-luciferase cells was determined by FACS analysis. Further, the binding affinity of thio anti-cynoCD79b(ch10D10) drug conjugates to CD79b expressed on BJAB cells expressing cynoCD79b was determined by FACS analysis.
Briefly, approximately 1×10⁶ cells in 100 μl were contacted with varying amounts (1.0 μg, 01. μg or 0.01 μg of Ab per million cells of BJAB-luciferase cells or BJAB cells expressing cynoCD79b (for anti-cynoCD79b thioMAbs)) of one of the following anti-CD79b thioMAb drug conjugates or naked (unconjugated Ab as a control): (1) thio MA79b-LC(V205C)-MC-MMAF or (2) thio MA79b-HC(A118C)-MC-MMAF (FIGS. 29A-B, respectively); (3) thio huMA79b.v18-HC(A118C)-MC-MMAF, (4) thio huMA79b.v18-HC(A118C)-MC-vcPAB-MMAE or (5) thio huMA79b.v18-HC(A118C)-BMPEO-DM1 (FIGS. 30B-D, respectively); (6) thio huMA79b.v28-HC(A118C)-MCvcPAB-MMAE, (7) thio huMA79b.v28-HC(A118C)-BMPEO-DM1, or (8) thio huMA79b.v28-HC(A118C)-MC-MMAF (see FIGS. 31B-31D, respectively); or (9) thio anti-cynoCDb79(ch10D10)-HC(A118C)-MCvcPAB-MMAE, (10) thio anti-cynoCD79b(ch10D10)-HC(A118C)-BMPEO-DM1 or (11) thio anti-cynoCD79b(ch10D10)-HC(A118C)-MC-MMAF (see FIGS. 32B-32D, respectively). PE conjugated mouse anti-human Ig was used as the secondary detecting antibody (BD Cat#555787).

Row | Binder | binding result
1 | B1 | binds
2 | B2 | binds
